Measured values as given in paper PMC4336329 (PLoS ONE, 2015).
The campaign covered roughly 310,000 compounds. About 14,000 (4.5%) showed an effect of 50% or more. The effect is printed as a negative number. Some of the results follow.

Molecular target: human ether-à-go-go-related gene (hERG) potassium channel (human, UniProt Q12809)
Assay: primary screen, population patch clamp on CHO cells stably expressing hERG
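Also: peak tail current of the secondary pulse compared with the same well before compound.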

Sequence of human ether-à-go-go-related gene (hERG) potassium channel (Q12809 whole entry, looked up): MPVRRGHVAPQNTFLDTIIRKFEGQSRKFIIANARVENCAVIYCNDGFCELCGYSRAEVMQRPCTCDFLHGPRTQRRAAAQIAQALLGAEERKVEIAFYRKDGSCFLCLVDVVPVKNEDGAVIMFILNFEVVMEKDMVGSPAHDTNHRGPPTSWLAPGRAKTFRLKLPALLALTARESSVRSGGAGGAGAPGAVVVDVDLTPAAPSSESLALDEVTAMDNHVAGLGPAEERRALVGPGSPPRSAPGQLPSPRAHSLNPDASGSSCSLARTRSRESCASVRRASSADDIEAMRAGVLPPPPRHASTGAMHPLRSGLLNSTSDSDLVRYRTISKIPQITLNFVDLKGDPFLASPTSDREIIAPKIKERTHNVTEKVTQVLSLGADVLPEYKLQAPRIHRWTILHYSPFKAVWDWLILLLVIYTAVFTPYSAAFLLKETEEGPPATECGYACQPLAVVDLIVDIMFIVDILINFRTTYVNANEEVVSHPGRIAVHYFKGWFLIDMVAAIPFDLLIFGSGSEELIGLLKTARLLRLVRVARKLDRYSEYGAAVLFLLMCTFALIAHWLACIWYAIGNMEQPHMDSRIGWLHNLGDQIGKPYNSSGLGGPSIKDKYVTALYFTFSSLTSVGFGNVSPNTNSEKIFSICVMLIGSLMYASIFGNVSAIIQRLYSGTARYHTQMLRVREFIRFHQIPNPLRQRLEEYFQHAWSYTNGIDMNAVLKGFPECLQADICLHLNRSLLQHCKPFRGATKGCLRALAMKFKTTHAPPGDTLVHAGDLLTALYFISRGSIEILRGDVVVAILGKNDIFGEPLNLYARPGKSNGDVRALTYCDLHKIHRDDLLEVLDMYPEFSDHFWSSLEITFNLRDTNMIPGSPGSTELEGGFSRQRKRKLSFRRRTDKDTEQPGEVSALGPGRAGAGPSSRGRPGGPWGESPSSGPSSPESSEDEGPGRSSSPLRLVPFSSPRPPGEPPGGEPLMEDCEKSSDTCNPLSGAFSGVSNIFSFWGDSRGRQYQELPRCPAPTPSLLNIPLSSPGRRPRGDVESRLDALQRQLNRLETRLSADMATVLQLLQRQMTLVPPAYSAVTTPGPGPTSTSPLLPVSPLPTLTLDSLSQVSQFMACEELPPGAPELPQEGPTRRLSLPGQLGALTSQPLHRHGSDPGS

Row | SMILES | hERG current change (%, negative = inhibition) at 10uM
1 | Cc1ccccc1CN(C)CC(=O)NC(C)CCc1ccccc1 (stereo not drawn) | -17.2%
2 | COc1ccc(N2CCN(C(=O)CCN3C(=S)NC(C)(C)CC3C)CC2)cc1 (stereo not drawn) | 13.9%
3 | COc1ccc(CCNc2c(C)c(C)nc3ncnn23)cc1 | -14%
4 | COc1ccc(CNC(=O)COC(=O)c2cccc(S(=O)(=O)N3CCOCC3)c2)cc1 | -24.5%
5 | Cc1cc(F)ccc1NCc1ccncc1 | -13.2%
6 | O=C(Cc1cccs1)N(Cc1ccco1)C1(C(=O)NC2CCCCC2)CCCCC1 | -8.09%
7 | CCOC(=O)N1CCN(S(=O)(=O)c2ccc(C(=O)Nc3nc4c(s3)CC(C)CC4)cc2)CC1 (stereo not drawn) | 16.2%
8 | CCc1ccc(NC(=O)CN(c2ccc(OC)cc2)S(=O)(=O)c2c(C)nn(C)c2C)cc1 | -4.36%
9 | COc1cc(-c2nc(S(=O)(=O)c3ccc(C)cc3)c(N3CCOCC3)o2)cc(OC)c1OC | -20.1%
10 | N#CC1=C2SCN(Cc3ccccc3)CN2C(=O)CC1c1cccs1 (stereo not drawn) | 6.44%
11 | CCn1c(=O)c(C(=O)Nc2ccccc2)c(O)c2ccccc21 | 20.5%
12 | CC1=C(C(N)=O)C(c2ccncc2)n2nc(-c3ccccc3Cl)nc2N1 (stereo not drawn) | 8.54%
13 | Cc1ccc(C(=O)Nc2ccccc2N2CCN(C(=O)C(C)C)CC2)cc1 | -19.1%
14 | COc1nc(N/N=C/c2ccc(-c3ccccc3[N+](=O)[O-])o2)nc(N2CCOCC2)n1 | -15.7%
15 | CCCCOC(=O)n1c(=O)oc2ccccc21 | -3.79%
16 | CCC(COC(=O)NC)NC(=O)Oc1cccc(C)c1 (stereo not drawn) | -0.233%
17 | COc1cccc(-c2c[nH]c(=O)[nH]c2=O)c1 | 16.1%
18 | CCN(CC)CCCn1c2c(c(SCC(=O)Nc3cc(C)on3)nc1=O)CCC2 | -2.43%
19 | c1ccc(CCN2CCC3(CC2)OCCO3)cc1 | 7.75%
20 | O=C(CN1C(=O)COc2ccccc21)c1ccc(Cl)cc1 | -41.1%
21 | CN1C(=O)[C@@H]2[C@H](C1=O)[C@@H]1C(=O)Nc3ccccc3C(=O)N1[C@@H]2c1ccc(Br)cc1 | -31.7%
22 | CCCCC(C(=O)NC(C)c1ccccc1)C(=O)NC(C)c1ccccc1 (stereo not drawn) | -6.81%

Row | SMILES | hERG current change (%, negative = inhibition) at 10uM
23 | O=C(c1ccc(S(=O)(=O)c2ccccc2Cl)c([N+](=O)[O-])c1)N1CCCCCC1 | -11%
24 | O=C(c1cc(-c2ccc(Cl)cc2Cl)on1)N1CCN(C(=O)c2ccco2)CC1 | -70.2%
25 | O=C(O)COc1ccc(C(=O)Cc2ccc3c(c2)OCCCO3)c(O)c1 | 0.9%
26 | C=CCC(NCc1ccco1)c1ccc(OC)cc1 (stereo not drawn) | -0.124%
27 | Cc1ccc(NS(=O)(=O)c2ccc(C(=O)NCCCN3CCOCC3)cc2)cc1 | -1.13%
28 | CCOc1cc(C(C(=O)NCC2CCCO2)N(C(=O)Cn2nnc3ccccc32)c2ccccc2C(C)=O)ccc1O (stereo not drawn) | 24.5%
29 | CC(C)CC1NC(=O)N(CC(=O)Nc2ccc(-c3ccccc3)cc2)C1=O (stereo not drawn) | -0.474%
30 | COc1cccc(CNC(=O)COC(=O)c2cc(Br)c(Br)s2)c1 | 14.8%
31 | CC(=O)NC1C(OCc2ccccc2)OC(COC(C)=O)C(OC(C)=O)C1OC(C)=O (stereo not drawn) | 21.1%
32 | C/C(=N/N1CCN(Cc2cccc3ccccc23)CC1)c1cccnc1 | -50.1%
33 | COc1ccc2nc(NC(=O)CCN3C(=O)c4ccccc4C3=O)sc2c1 | -10.7%
34 | O=c1ccc(-c2n[nH]c(=S)n2-c2ccc(F)c(Cl)c2)n[nH]1 | 25%
35 | O=C(CSc1ccccn1)N1CCN(c2ncc(C(F)(F)F)cc2Cl)CC1 | -63.9%
36 | C=CCN(c1ccc(C(=O)Nc2ccc(C)cc2)cc1)S(C)(=O)=O | -4.31%
37 | Cc1ccc(OCC(=O)NC(=S)Nc2cccc(NC(=O)c3ccccc3Cl)c2)cc1 | -0.653%
38 | Cc1ccc(NC(=O)CN(C)C(=O)/C=C/c2ccc3c(c2)OCO3)cc1 | -18.1%
39 | CCN(CC(=O)NC(=O)NCc1ccccc1)Cc1nc2ccccc2c(=O)[nH]1 | -12.9%
40 | N/C(=N\OC(=O)Cc1ccccc1)c1ccncc1 | 5.47%
41 | CCOC(=O)NC1(C(F)(F)F)C(=O)NC(C)=C1C(=O)OC (stereo not drawn) | -0.763%
42 | CC(CCc1ccccc1)NC(=O)CCCCCNc1nc(=S)[nH]c2ccccc12 (stereo not drawn) | 6.95%
43 | Cc1nc(SCC#N)c2c3c(sc2n1)CCC3 | -2.54%
44 | Cc1cc(OCC(=O)NC(Cc2ccc(Cl)cc2)C(=O)O)c2c(C)cc(=O)oc2c1 (stereo not drawn) | 4.88%

Row | SMILES | hERG current change (%, negative = inhibition) at 10uM
45 | CC(=O)Oc1cccc(/C=C2\Sc3ccccc3C2=O)c1 | 7.73%
46 | CC(=O)Nc1ccc(N2CCN(c3ccc(C(F)(F)F)cn3)CC2)nc1 | -3.49%
47 | O=C(COC(=O)Cc1c[nH]c2ccccc12)Nc1cccc2ccccc12 | 5.37%
48 | Cc1noc(C)c1S(=O)(=O)N1CCC2(CC1)OCCO2 | 11.9%
49 | Cc1nnc(SCCn2c(N3CCN(C)CC3)nc3c2c(=O)[nH]c(=O)n3C)s1 | 7.16%
50 | CCOC(=O)c1n[nH]n2c1nc(=O)c1ccccc12 | 14.2%
51 | Cc1ccc(C(=O)NCCN2C3=NC[C@H](C(C)C)N3C[C@H]2Cc2ccc(O)cc2)cc1Br | -26.3%
52 | COc1ccc(N2C(=O)C(CC(N)=O)N(NC(=O)c3cccc(OC)c3)C2=S)cc1 (stereo not drawn) | 33.2%
53 | CCOC(=O)N1CCN(S(=O)(=O)c2ccc(-n3cnnn3)cc2)CC1 | -61.4%
54 | CCCS(=O)(=O)c1c(S(=O)(=O)CCC)c2c(N)cccn2c1C(=O)c1ccccc1 | -0.347%
55 | CC(=O)Nc1ccc(NC(=O)COC(=O)CCCc2c[nH]c3ccccc23)cc1 | -1.71%
56 | CS(=O)c1ccccc1-c1nc(-c2ccc(Cl)cc2)no1 (stereo not drawn) | 4.09%
57 | O=C(CN1C(=O)c2ccccc2S1(=O)=O)NC1CCCC1 | 6.01%
58 | Cc1c(C(=O)O)cccc1-c1ccc(/C=C2/NC(=O)N(c3ccccc3)C2=O)o1 | 47.6%
59 | CC(C)CN(C(=O)CCc1ccccc1)c1c(N)n(CC(C)C)c(=O)[nH]c1=O | 1.3%
60 | CCOc1ccc(OCCN2C(=O)NC3(CCCc4ccccc43)C2=O)cc1 (stereo not drawn) | -19.8%
61 | CCN1CCN(C(=O)C2COc3ccccc3O2)CC1 (stereo not drawn) | -7.48%
62 | CCOC(=O)c1cc(C)n(-c2ccccc2)c1C | 7.23%
63 | Cc1ccc(S(=O)(=O)Cn2nnnc2C(C)N2CCN(C(=O)c3ccco3)CC2)cc1 (stereo not drawn) | -23.2%
64 | Cc1ccc(S(=O)(=O)N(CC(=O)N/N=C/c2cccc(Cl)c2)c2cccc3cccnc23)cc1 | 4.63%
65 | CCNC(=O)C(C)Oc1ccc(Cl)cc1Cl (stereo not drawn) | 9.68%
66 | O=C(CCn1cccc1)NCCc1ccc(Cl)cc1 | 0.814%

Row | SMILES | hERG current change (%, negative = inhibition) at 10uM
67 | O=C(O)C(=O)O.O=C(c1ccccc1)c1ccc(OCCCN2CCCCC2)cc1 | -66.4%
68 | CCC(C)c1ccc(NC(=O)NCc2cccnc2)cc1 (stereo not drawn) | -2.72%
69 | Cc1cccc(-n2cnc(C(=O)NC3CCCCCC3)c2)n1 | -24.1%
70 | O=C(O)c1cccc(-n2cccc2/C=C2/NC(=O)N(c3cccc(Cl)c3)C2=O)c1 | 12.4%
71 | CCCC(=O)NC(c1cccs1)c1cc(Cl)c2cccnc2c1O (stereo not drawn) | -23.8%
72 | O=C(CCN1C(=O)/C(=C/c2ccccc2Cl)SC1=S)Nc1ccccn1 | 2.26%
73 | O=C(CCCC(=O)N(CC(=O)NC1CCCC1)Cc1ccccc1)Nc1ccccn1 | 1.59%
74 | O=C(Nc1ccn(Cc2ccc(F)cc2)n1)c1ccncc1 | 18.3%
75 | FC(F)(F)c1nnc(N2CCN(c3ccc(Cl)cc3)CC2)s1 | 11.1%
76 | O=C(Nc1ccc2c(c1)OCCO2)NC1CCCCC1 | -13.9%
77 | CNC(=O)c1cc(Cl)c(OC)c(OC)c1 | 11.9%
78 | C/C(=C/C(=O)N1CCN(C)CC1)C(=O)O | 22.2%
79 | CC1CCC(NC(=O)COC(=O)c2n[nH]c(=O)c3ccccc23)CC1 (stereo not drawn) | -13.6%
80 | Cc1ccc2c(c1)nnn2C1CCN(S(=O)(=O)c2ccc(C(=O)O)cc2)CC1 | 19.3%
81 | CCOC(=O)C1CCN(CCC(=O)Nc2cccc(Cl)c2C)CC1 | -5.48%
82 | COc1ccc(Cl)cc1NC(=O)CN(C)C(=O)c1cc2c(F)cccc2s1 | -6.32%
83 | CCN(CC)S(=O)(=O)c1ccc(N/N=C/c2cccnc2)nc1 | -9.7%
84 | CC(=O)n1cc([C@H]2C=C(C(=O)N3CCN(Cc4ccc5c(c4)OCO5)CC3)O[C@@H](OCCCCO)C2)c2ccccc21 | -32.7%
85 | CC(c1nccs1)N(C)c1nc2nonc2nc1N(C)C (stereo not drawn) | -12.6%
86 | C#CC[N+](C)(C)CCCCCCCCCC.[Br-] | -38.4%
87 | Cc1cccc(C)c1OCc1nc2ccccc2c(=O)n1/N=C/c1c[nH]c2ccccc12 | 26%
